Measured values reported in PMC4336329 (PLoS ONE, 2015).
Among all 310,000 compounds or so, about 14,000 (4.5%) showed an effect of 50% or more. Effects have a minus sign here. The list shows a part of the results.

Biological target: human ether-à-go-go-related gene (hERG) potassium channel (human, UniProt Q12809)
Test: primary screen, population patch clamp on CHO cells stably expressing hERG
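Note: peak tail current of the secondary pulse compared with the same well before compound.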

Sequence of human ether-à-go-go-related gene (hERG) potassium channel (Q12809 whole entry, looked up): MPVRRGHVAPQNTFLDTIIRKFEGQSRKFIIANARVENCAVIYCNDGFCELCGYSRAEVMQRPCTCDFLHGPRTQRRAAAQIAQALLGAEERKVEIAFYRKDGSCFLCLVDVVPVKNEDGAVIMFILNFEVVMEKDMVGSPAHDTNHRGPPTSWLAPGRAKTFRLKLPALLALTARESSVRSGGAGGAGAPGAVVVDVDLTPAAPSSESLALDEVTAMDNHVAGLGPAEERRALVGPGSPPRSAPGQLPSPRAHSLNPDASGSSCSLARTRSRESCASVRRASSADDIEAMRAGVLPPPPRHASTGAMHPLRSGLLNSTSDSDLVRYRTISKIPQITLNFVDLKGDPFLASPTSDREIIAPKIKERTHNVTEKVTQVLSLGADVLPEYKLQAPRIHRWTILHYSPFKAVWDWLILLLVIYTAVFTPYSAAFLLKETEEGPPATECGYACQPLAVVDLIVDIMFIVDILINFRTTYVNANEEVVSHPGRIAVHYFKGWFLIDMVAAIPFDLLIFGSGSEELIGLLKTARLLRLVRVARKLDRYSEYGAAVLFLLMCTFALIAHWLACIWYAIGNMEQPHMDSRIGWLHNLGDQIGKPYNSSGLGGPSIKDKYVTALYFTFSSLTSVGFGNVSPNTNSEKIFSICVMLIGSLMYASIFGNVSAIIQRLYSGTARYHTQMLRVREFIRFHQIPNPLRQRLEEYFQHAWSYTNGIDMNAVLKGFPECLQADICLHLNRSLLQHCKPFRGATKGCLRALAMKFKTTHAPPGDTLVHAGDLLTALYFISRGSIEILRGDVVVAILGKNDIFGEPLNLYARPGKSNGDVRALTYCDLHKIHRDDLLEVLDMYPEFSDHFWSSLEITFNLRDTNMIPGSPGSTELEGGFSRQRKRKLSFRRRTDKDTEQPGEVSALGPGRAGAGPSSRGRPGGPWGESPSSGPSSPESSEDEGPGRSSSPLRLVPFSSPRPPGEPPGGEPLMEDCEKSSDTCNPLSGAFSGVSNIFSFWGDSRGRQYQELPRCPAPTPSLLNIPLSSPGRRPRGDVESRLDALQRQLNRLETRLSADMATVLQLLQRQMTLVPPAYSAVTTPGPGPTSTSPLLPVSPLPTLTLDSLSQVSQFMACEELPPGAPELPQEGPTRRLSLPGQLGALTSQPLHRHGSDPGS

Compared with `Cl.OCCN(CCO)CC(O)CN(c1ccccc1)c1ccccc1` (stereo not drawn), `OC(CNCc1ccccc1F)COc1cccc2ccccc12` (stereo not drawn) is lower in “hERG current change (%, negative = inhibition) at 10uM” value: -14.6% for the first, -19.7% for the second.

Going from `O=C(NNc1ccccc1Cl)C(O)(c1cccc(C(F)(F)F)c1)c1cccc(C(F)(F)F)c1` to `O=C(COC(=O)Cn1cnc2ccccc2c1=O)Nc1ccc(Cl)c(C(F)(F)F)c1`, the “hERG current change (%, negative = inhibition) at 10uM” value falls from 11.2% to 2.58%.

First: COC(=O)[C@@]12CCCN1[C@H](c1ccc(-c3ccccc3)cc1)[C@@H]1C(=O)N(C)C(=O)[C@@H]12.O=C(O)C(F)(F)F
Second: COc1ccc([C@@H]2CC=C(C(=O)O)[C@H](c3ccccc3)N2S(=O)(=O)c2ccc(C)cc2)cc1OC
The “hERG current change (%, negative = inhibition) at 10uM” value of the first is lower: -6.67% for the first, 11.2% for the second.

Going from `COc1ccc(/C(O)=C2\C(=O)C(=O)N(c3cc(C)on3)C2c2ccccc2OC)cc1` (stereo not drawn) to `COc1ccc(N/C=C2/Sc3ccccc3NC2=O)cc1`, the “hERG current change (%, negative = inhibition) at 10uM” value rises from 12.6% to 13.8%.

First: O=C(Nc1ccncc1)C1COc2ccccc2O1 (stereo not drawn)
Second: O=C(C[n+]1ccc(/C=N/O)cc1)NC(=O)Nc1ccccc1
The “hERG current change (%, negative = inhibition) at 10uM” value of the first is lower: -6.92% for the first, 10.5% for the second.

First: C=CCSc1nnc(Cn2c(=O)sc3ccccc32)n1C
Second: C=CCn1c(Cc2ccccc2)nnc1SCc1nc2ccccc2c(=O)[nH]1
The “hERG current change (%, negative = inhibition) at 10uM” value of the first is lower: -15.3% for the first, 5.07% for the second.

Compared with `CCCCN(CCCC)C(=O)c1ccccc1NC(=O)CN1C(=O)c2ccccc2C1=O`, `CC(C)CC(=O)Nc1ccccc1-c1nnn(CC(=O)N2CCc3ccccc3C2)n1` is lower in “hERG current change (%, negative = inhibition) at 10uM” value: -15.4% for the first, -37.3% for the second.

Compared with `C=CCC1(CC=C)CCCN1C(=O)CC1C(=O)NCCN1Cc1ccccc1OC` (stereo not drawn), `CCOCCn1c(N2CCN(c3ccccc3)CC2)nc2c1c(=O)[nH]c(=O)n2C` is lower in “hERG current change (%, negative = inhibition) at 10uM” value: -14.7% for the first, -23.1% for the second.

Compared with `COc1cc(NC(=O)c2cc3nc(C)cc(C)n3n2)c(OC)cc1Cl`, `CCCCc1c(O)nc(SCC(=O)NCCc2ccc(OC)c(OC)c2)[nH]c1=O` is higher in “hERG current change (%, negative = inhibition) at 10uM” value: -2.77% for the first, -0.0252% for the second.

First: FC(F)(F)c1cc(CCN2C(=S)NC[C@@H]2CC2CCCCC2)cc(C(F)(F)F)c1
Second: CC(C)CCN(C(=O)CNC(=O)c1ccco1)C(C(=O)NC1CCCCC1)c1ccco1 (stereo not drawn)
The “hERG current change (%, negative = inhibition) at 10uM” value of the first is higher: 11.5% for the first, -7.94% for the second.

Compared with `CC(C)(C)c1o[nH]c(=O)c1CC(N)C(=O)O` (stereo not drawn), `CN(C)c1nc(NC(C)(C)C)nc(SCC(=O)Nc2ccccc2)n1` is higher in “hERG current change (%, negative = inhibition) at 10uM” value: 17.5% for the first, 31.4% for the second.

Going from `Fc1cccc(NC(=S)NCCc2ccccc2)c1` to `Cc1ccc(C(=O)Nc2ccc(Nc3ccccc3)cc2)cc1C`, the “hERG current change (%, negative = inhibition) at 10uM” value rises from 7.95% to 17.7%.

First: O=C(NCCCN1CCOCC1)c1ccc2c(c1)N(Cc1ccc(F)cc1)CCS2
Second: O=C(NCCCNC(=O)c1ccco1)c1ccc(Cl)cc1
The “hERG current change (%, negative = inhibition) at 10uM” value of the first is lower: -31.7% for the first, -8.11% for the second.

First: Cl.OC12ONC(c3ccccn3)C1N1CCC2CC1 (stereo not drawn)
Second: CCOc1ccccc1/C=N/NC(=O)c1nnn(-c2nonc2N)c1CN1CCCC1
The “hERG current change (%, negative = inhibition) at 10uM” value of the first is lower: 17.4% for the first, 25.1% for the second.

Going from `O=C(N/N=C/c1c[nH]c2ccccc12)c1cc(-c2ccc3ccccc3c2)n[nH]1` to `O=C1Nc2ccccc2N(O)N1c1cc(-c2cccc(Cl)c2)no1`, the “hERG current change (%, negative = inhibition) at 10uM” value falls from 13% to 8.12%.

Compared with `NC(=O)COC(=O)c1ccc2c(c1)S(=O)(=O)N=C1CCCCCN12`, `CN(c1ccccc1)S(=O)(=O)c1ccc(C(=O)OCC(=O)N2CCOCC2)cc1` is higher in “hERG current change (%, negative = inhibition) at 10uM” value: 2.65% for the first, 3.03% for the second.

First: CCc1ccc(-c2ccc3nnc(SCC(=O)NCC4CCCO4)n3n2)cc1 (stereo not drawn)
Second: Cc1ccccc1OCC(=O)N/N=C/c1ccc(N2CCOCC2)o1
The “hERG current change (%, negative = inhibition) at 10uM” value of the first is lower: -48.7% for the first, -2.25% for the second.

Going from `Cc1oc(-c2ccccc2Cl)nc1CN1C(=O)CN=C(c2ccccc2)c2ccccc21` to `CCOc1cc(CNCCc2ccc(S(N)(=O)=O)cc2)ccc1OCc1ccccc1.Cl`, the “hERG current change (%, negative = inhibition) at 10uM” value falls from -1.8% to -55.9%.

Compared with `Cc1[nH]c2ccccc2c1C(c1ccncc1)N1CCCCC1` (stereo not drawn), `Cc1ccc(S(=O)(=O)N2CCCC(C(=O)Nc3ccc(NC(=O)c4ccccn4)cc3)C2)cc1` (stereo not drawn) is higher in “hERG current change (%, negative = inhibition) at 10uM” value: -1.75% for the first, 11.8% for the second.

Compared with `NC(=O)c1ccccc1`, `Cc1ccccc1NC(=O)C(Cl)=C(Cl)Cl` is lower in “hERG current change (%, negative = inhibition) at 10uM” value: 15% for the first, 14.7% for the second.

Compared with `CCOC(=O)C1=C(O)/C(=C\c2cccs2)N=C1C`, `CCOc1cc2[nH]c(=O)n(CCCC(=O)NCc3ccco3)c(=O)c2cc1OCC` is higher in “hERG current change (%, negative = inhibition) at 10uM” value: -5.73% for the first, 5.83% for the second.

Going from `COc1ccc2nc(SCCN(C)C)[nH]c2c1.Cl` to `COc1cc(Br)c(CN2C(=O)NC3(CCCCCC3)C2=O)cc1OC`, the “hERG current change (%, negative = inhibition) at 10uM” value rises from 12.3% to 18.1%.

`Cc1ccc(S(=O)(=O)NC(CC(C)C)C(=O)NCC(C)(C)N2CCOCC2)cc1` (stereo not drawn) was tested, and the “hERG current change (%, negative = inhibition) at 10uM” value was 11.6%.
